Data as given in publication PMC11828465.
These are yes or no findings as the source states them, for the method shown. In cells and extracts the contact can be indirect. Sequences can lack the tags named with a protein.

Protein sequences, listed by entry. Tags and fused reporters are not part of them. Residues count along the entry.
UniProt P51149: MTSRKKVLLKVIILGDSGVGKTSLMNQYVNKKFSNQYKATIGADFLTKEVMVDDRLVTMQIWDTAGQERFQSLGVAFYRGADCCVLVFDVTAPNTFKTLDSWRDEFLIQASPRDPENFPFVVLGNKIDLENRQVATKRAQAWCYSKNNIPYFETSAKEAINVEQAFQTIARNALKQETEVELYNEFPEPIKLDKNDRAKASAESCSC
UniProt P62820: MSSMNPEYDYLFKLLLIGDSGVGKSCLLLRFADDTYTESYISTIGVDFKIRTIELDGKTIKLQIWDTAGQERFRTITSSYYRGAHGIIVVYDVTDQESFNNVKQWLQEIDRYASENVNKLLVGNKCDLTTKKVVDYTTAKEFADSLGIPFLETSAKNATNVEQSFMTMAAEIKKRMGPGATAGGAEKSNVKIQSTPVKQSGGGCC
UniProt Q99523, residues 78-831: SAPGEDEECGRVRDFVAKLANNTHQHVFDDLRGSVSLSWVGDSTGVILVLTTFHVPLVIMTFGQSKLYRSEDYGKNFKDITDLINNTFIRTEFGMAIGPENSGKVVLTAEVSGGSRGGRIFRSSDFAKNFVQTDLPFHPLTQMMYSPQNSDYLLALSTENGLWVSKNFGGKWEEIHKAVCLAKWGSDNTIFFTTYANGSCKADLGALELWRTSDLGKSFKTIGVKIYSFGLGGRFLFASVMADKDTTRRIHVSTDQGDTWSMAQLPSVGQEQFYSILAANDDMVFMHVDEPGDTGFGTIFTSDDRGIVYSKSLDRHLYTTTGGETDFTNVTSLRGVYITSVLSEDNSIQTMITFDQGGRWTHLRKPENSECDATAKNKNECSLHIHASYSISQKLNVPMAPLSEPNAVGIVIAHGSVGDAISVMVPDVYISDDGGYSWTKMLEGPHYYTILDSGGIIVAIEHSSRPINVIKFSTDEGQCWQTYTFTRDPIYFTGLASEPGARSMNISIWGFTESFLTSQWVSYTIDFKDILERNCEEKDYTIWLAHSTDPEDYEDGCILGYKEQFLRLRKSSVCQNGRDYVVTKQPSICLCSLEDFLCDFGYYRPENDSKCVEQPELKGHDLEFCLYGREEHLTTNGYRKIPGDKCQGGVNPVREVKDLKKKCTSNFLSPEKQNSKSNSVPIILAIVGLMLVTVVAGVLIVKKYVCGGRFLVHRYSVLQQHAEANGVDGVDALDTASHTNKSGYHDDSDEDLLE

Key:
Test in all cases: FRET or BRET; BRET titration curves in live wild-type HEK293 cells: constant amount of the RlucII fusion, increasing amounts of the GFP10 fusion; 48 h post transfection; cells in PBS, coelenterazine 400a 5 µM, read after 2 min at RT; BRET50 from BRETnet against GFP10 fluorescence/RlucII …
[1] = target: RlucII–Rab7A wild-type (UniProt P51149)
[2] = target: RlucII–Rab1a (UniProt P62820)
[3] = target: sortilin–RlucII (UniProt Q99523)

B1: µ1–GFP10 (protein, UniProt Q9BXS5 1-423)
chain: MSASAVYVLDLKGKVLICRNYRGDVDMSEVEHFMPILMEKEEEGMLSPILAHGGVRFMWIKHNNLYLVATSKKNACVSLVFSFLYKVVQVFSEYFKELEEESIRDNFVIIYELLDELMDFGYPQTTDSKILQEYITQEGHKLETGAPRPPATVTNAVSWRSEGIKYRKNEVFLDVIESVNLLVSANGNVLRSEIVGSIKMRVFLSGMPELRLGLNDKVLFDNTGRGKSKSVELEDVKFHQCVRLSRFENDRTISFIPPDGEFELMSYRLNTHVKPLIWIESVIEKHSHSRIEYMIKAKSQFKRRSTANNVEIHIPVPNDADSPKFKTTVGSVKWVPENSEIVWSIKSFPGGKEYLMRAHFGLPSVEAEDKEGKPPISVKFEIPYFTTSGIQVRYLKIIEKSGYQALPWVRYITQNGDYQLRTQ
- binding [1]: no binding

B2: GFP10–FYCO1 (protein, UniProt Q9BQS8 1-1478)
chain: MASTNAESQLQRIIRDLQDAVTELSKEFQEAGEPITDDSTSLHKFSYKLEYLLQFDQKEKATLLGNKKDYWDYFCACLAKVKGANDGIRFVKSISELRTSLGKGRAFIRYSLVHQRLADTLQQCFMNTKVTSDWYYARSPFLQPKLSSDIVGQLYELTEVQFDLASRGFDLDAAWPTFARRTLTTGSSAYLWKPPSRSSSMSSLVSSYLQTQEMVSNFDLNSPLNNEALEGFDEMRLELDQLEVREKQLRERMQQLDRENQELRAAVSQQGEQLQTERERGRTAAEDNVRLTCLVAELQKQWEVTQATQNTVKELQTCLQGLELGAAEKEEDYHTALRRLESMLQPLAQELEATRDSLDKKNQHLASFPGWLAMAQQKADTASDTKGRQEPIPSDAAQEMQELGEKLQALERERTKVEEVNRQQSAQLEQLVKELQLKEDARASLERLVKEMAPLQEELSGKGQEADQLWRRLQELLAHTSSWEEELAELRREKKQQQEEKELLEQEVRSLTRQLQFLETQLAQVSQHVSDLEEQKKQLIQDKDHLSQQVGMLERLAGPPGPELPVAGEKNEALVPVNSSLQEAWGKPEEEQRGLQEAQLDDTKVQEGSQEEELRQANRELEKELQNVVGRNQLLEGKLQALQADYQALQQRESAIQGSLASLEAEQASIRHLGDQMEASLLAVRKAKEAMKAQMAEKEAILQSKEGECQQLREEVEQCQQLAEARHRELRALESQCQQQTQLIEVLTAEKGQQGVGPPTDNEARELAAQLALSQAQLEVHQGEVQRLQAQVVDLQAKMRAALDDQDKVQSQLSMAEAVLREHKTLVQQLKEQNEALNRAHVQELLQCSEREGALQEERADEAQQREEELRALQEELSQAKCSSEEAQLEHAELQEQLHRANTDTAELGIQVCALTVEKERVEEALACAVQELQDAKEAASREREGLERQVAGLQQEKESLQEKLKAAKAAAGSLPGLQAQLAQAEQRAQSLQEAAHQELNTLKFQLSAEIMDYQSRLKNAGEECKSLRGQLEEQGRQLQAAEEAVEKLKATQADMGEKLSCTSNHLAECQAAMLRKDKEGAALREDLERTQKELEKATTKIQEYYNKLCQEVTNRERNDQKMLADLDDLNRTKKYLEERLIELLRDKDALWQKSDALEFQQKLSAEERWLGDTEANHCLDCKREFSWMVRRHHCRICGRIFCYYCCNNYVLSKHGGKKERCCRACFQKLSEGPGSPDSSGSGTSQGEPSPALSPASPGPQATGGQGANTDYRPPDDAVFDIITDEELCQIQESGSSLPETPTETDSLDPNAAEQDTTSTSLTPEDTEDMPVGQDSEICLLKSGELMIKVPLTVDEIASFGEGSRELFVRSSTYSLIPITVAEAGLTISWVFSSDPKSISFSVVFQEAEDTPLDQCKVLIPTTRCNSHKENIQGQLKVRTPGIYMLIFDNTFSRFVSKKVFYHLTVDRPVIYDGSDFL
- binding [2]: no binding

B3: GFP10–Vps41 (protein, UniProt P49754 1-854)
chain: MAEAEEQETGSLEESTDESEEEESEEEPKLKYERLSNGVTEILQKDAASCMTVHDKFLALGTHYGKVYLLDVQGNITQKFDVSPVKINQISLDESGEHMGVCSEDGKVQVFGLYSGEEFHETFDCPIKIIAVHPHFVRSSCKQFVTGGKKLLLFERSWMNRWKSAVLHEGEGNIRSVKWRGHLIAWANNMGVKIFDIISKQRITNVPRDDISLRPDMYPCSLCWKDNVTLIIGWGTSVKVCSVKERHASEMRDLPSRYVEIVSQFETEFYISGLAPLCDQLVVLSYVKEISEKTEREYCARPRLDIIQPLSETCEEISSDALTVRGFQENECRDYHLEYSEGESLFYIVSPRDVVVAKERDQDDHIDWLLEKKKYEEALMAAEISQKNIKRHKILDIGLAYINHLVERGDYDIAARKCQKILGKNAALWEYEVYKFKEIGQLKAISPYLPRGDPVLKPLIYEMILHEFLESDYEGFATLIREWPGDLYNNSVIVQAVRDHLKKDSQNKTLLKTLAELYTYDKNYGNALEIYLTLRHKDVFQLIHKHNLFSSIKDKIVLLMDFDSEKAVDMLLDNEDKISIKKVVEELEDRPELQHVYLHKLFKRDHHKGQRYHEKQISLYAEYDRPNLLPFLRDSTHCPLEKALEICQQRNFVEETVYLLSRMGNSRSALKMIMEELHDVDKAIEFAKEQDDGELWEDLILYSIDKPPFITGLLNNIGTHVDPILLIHRIKEGMEIPNLRDSLVKILQDYNLQILLREGCKKILVADSLSLLKKMHRTQMKGVLVDEENICESCLSPILPSDAAKPFSVVVFHCRHMFHKECLPMPSMNSAAQFCNICSAKNRGPGSAILEMKK
- binding [3]: no binding
